Out of some 310,000 compounds screened, about 2,200 (0.71%) showed an effect of 50% or more. The effect is printed as a negative number. The list shows a part of the results.
Each compound was assayed against human ether-à-go-go-related gene (hERG) potassium channel (human, UniProt Q12809) (assay: primary screen, population patch clamp on CHO cells stably expressing hERG).
human ether-à-go-go-related gene (hERG) potassium channel, sequence (Q12809 whole entry, looked up): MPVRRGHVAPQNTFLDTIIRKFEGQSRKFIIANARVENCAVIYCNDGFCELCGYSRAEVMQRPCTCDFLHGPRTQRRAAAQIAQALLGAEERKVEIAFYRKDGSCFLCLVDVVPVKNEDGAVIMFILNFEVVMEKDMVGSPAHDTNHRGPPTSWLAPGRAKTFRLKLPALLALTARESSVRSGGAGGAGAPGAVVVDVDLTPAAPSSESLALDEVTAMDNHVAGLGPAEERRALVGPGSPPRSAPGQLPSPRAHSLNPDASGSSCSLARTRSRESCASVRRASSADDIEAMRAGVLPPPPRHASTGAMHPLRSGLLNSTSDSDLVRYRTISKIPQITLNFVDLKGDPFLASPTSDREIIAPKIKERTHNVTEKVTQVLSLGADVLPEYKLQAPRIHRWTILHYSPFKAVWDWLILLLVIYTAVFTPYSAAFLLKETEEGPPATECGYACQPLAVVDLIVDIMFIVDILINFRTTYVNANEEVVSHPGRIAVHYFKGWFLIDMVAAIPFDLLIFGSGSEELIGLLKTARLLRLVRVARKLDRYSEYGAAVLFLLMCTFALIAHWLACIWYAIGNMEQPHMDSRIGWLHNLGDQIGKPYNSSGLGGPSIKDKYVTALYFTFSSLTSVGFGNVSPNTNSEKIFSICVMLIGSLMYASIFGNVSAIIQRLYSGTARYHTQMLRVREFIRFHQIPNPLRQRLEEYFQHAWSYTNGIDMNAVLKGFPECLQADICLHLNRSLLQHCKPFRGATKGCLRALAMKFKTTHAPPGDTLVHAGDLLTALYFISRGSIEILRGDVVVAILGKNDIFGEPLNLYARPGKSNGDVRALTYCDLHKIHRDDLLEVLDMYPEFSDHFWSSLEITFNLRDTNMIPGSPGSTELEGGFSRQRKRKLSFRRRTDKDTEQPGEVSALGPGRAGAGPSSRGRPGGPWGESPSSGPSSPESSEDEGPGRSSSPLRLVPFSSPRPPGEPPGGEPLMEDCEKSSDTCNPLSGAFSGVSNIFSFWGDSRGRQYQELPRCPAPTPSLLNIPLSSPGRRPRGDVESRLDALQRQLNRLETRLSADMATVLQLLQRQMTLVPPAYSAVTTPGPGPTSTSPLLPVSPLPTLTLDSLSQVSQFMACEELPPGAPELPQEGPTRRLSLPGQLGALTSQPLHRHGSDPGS

| SMILES | hERG current change (%, negative = inhibition) at 1uM [%] |
| --- | --- |
| Cc1cccc(OP(=O)(Nc2c(C)n(C)n(-c3ccccc3)c2=O)Oc2cccc(C)c2)c1 | 7.63 |
| CCOC(=O)C1=C(C)OC(N)=C(C#N)C1c1ccc(O)c(OC)c1 (stereo not shown) | 3.42 |
| CCC1CCCCN1C(=O)CCc1nnc(Cc2cc(OC)ccc2OC)o1 (stereo not shown) | 11.3 |
| CC(=O)Oc1ccccc1C(=O)N(C1CCCCC1)C1CCCCC1 | 16.1 |
| Cc1cc(NC(=O)CSc2nc(N)c(NC(=O)c3ccccc3)c(=O)[nH]2)no1 | 8.24 |
| O=C(Nc1cccc(-c2ccc(N3CCCCC3)nn2)c1)c1ccc(Br)o1 | 10.6 |
| COc1ccc2[nH]c3c(c2c1)CCN1C(=O)N([C@@H](C)C(=O)NCCc2ccc(F)cc2)C(=O)[C@]31C | -1.92 |
| CCn1c(SCC(=O)N(C)CC(=O)Nc2ccc(OC)cc2)nnc1-c1ccco1 | 17.6 |
| Cc1cccc(N2CCN(C(=S)c3ccccc3)CC2)c1 | 17.2 |
| O=[N+]([O-])c1ccc(CNc2ccc(Cl)cc2)s1 | 12.4 |
| NC(=O)NC(=O)COC(=O)CN1C(=O)C2CCCCC2C1=O (stereo not shown) | 7.18 |
| CCOC(=O)c1cc(NC(=O)N(C(C)C)C(C)C)c(C)nc1C | -1.03 |
| CCOC(=O)c1c(NC(=O)CSc2nnc(C)c(=O)[nH]2)sc(C)c1-c1ccc(C)cc1 | 3.16 |
| CCOC(=O)c1c(S(=O)(=O)Nc2ccccc2OCC)c(C)n(C)c1C | 1.3 |
| Cc1ccc2c(CC(=O)NNC(=O)c3ccccc3)coc2c1 | 12 |
| CC(=O)Oc1ccc2c(=O)c(/C=N/c3cc(=O)[nH]c(=S)[nH]3)coc2c1 | -0.904 |
| COc1ccccc1NS(=O)(=O)c1ccc(N/N=C(\C)C(C)C)c([N+](=O)[O-])c1 | 4.93 |
| COc1cc(C2C(C#N)=C(N)N(c3cccnc3)C3=C2C(=O)CC(C)(C)C3)ccc1O (stereo not shown) | 1.59 |
| O=c1ccc(-c2ccc(S(=O)(=O)NCC3CCN(Cc4cccc(F)c4)CC3)s2)n[nH]1 | 1.82 |
| CCN(CC)c1ccc(N/C(N)=N/c2nc(C(F)(F)F)cc(=O)[nH]2)cc1 | 12.2 |
| Cc1cc[n+](-c2[nH]c(=O)sc2/C=N/N=C(\[O-])c2ccccc2)cc1 | 7.51 |
| Cc1c(OCC(=O)N[C@H](C(=O)O)c2ccccc2)ccc2c3c(c(=O)oc12)CCCC3 | 15.2 |

| SMILES | hERG current change (%, negative = inhibition) at 1uM [%] |
| --- | --- |
| C=CCn1c(SCC(=O)O)nc2sc(CC)cc2c1=O | -3.86 |
| COc1cccc(-c2ncc3ccccc3c2COC(=O)c2cccc(Br)c2)c1 | 17.6 |
| Cc1cc(OCC(=O)NC2CC(C)(C)NC(C)(C)C2)c2c(C)cc(=O)oc2c1 | -3.8 |
| Cc1noc(C)c1COc1ccccc1C(=O)NCCc1ccc(S(N)(=O)=O)cc1 | 4.96 |
| CC1(c2ccccc2)CC(C)(C)N2C(=O)C3(C(C#N)=C(N)Oc4cc(O)ccc43)c3cccc1c32 (stereo not shown) | 6.18 |
| Cc1cccc(N2CC(O)(c3cccs3)[N+]3=C2CCCC3)c1C.[Br-] (stereo not shown) | -4.09 |
| CCOC(=O)c1nc(NCCc2ccccc2)sc1C | 7.63 |
| O=C(O)C1CCN(C(=O)COc2ccc(Br)cc2)CC1 | 14.7 |
| C=CCOc1ccc(CNn2cn[nH]c2=S)cc1 | 8.58 |
| CC1CCc2c(sc(NC(=O)c3nc4ncccn4n3)c2C#N)C1 (stereo not shown) | 7.06 |
| O=C(NC(Cc1ccccc1)C(=O)O)/C(=C/c1ccccc1)NC(=O)c1ccco1 (stereo not shown) | 12.2 |
| COC(=O)c1ccccc1NC(=O)CN(C)Cc1ccccc1 | 21.1 |
| COc1cc(NS(=O)(=O)c2ccc(NC(=O)c3ccc(Cl)cc3Cl)cc2)ncn1 | -0.314 |
| C=CCNc1nc(C(=O)OCC(=O)Nc2ccccc2C(F)(F)F)cs1 | 5.13 |
| O=C(Nc1ccc(Br)cn1)c1ccc2nccnc2c1 | 9.13 |
| COC(=O)C1C(=O)C=C(N2CCOCC2)CC1(C)C (stereo not shown) | 12.8 |
| Cc1c(C(=O)N2CCCC(C)C2)sc2ncnc(N3CCCCC3C)c12 (stereo not shown) | 7.34 |
| CC(C)Oc1cc(S(=O)(=O)N2CCCCC2)ccc1N | 7.94 |
| Cc1cccc(C(=O)OCC(=O)NC(=O)NCc2ccccc2)c1 | 3.22 |
| COc1ccccc1OCCCOc1ccc([N+](=O)[O-])cc1Cl | 9.1 |
| CCC(C)(C)NC(=O)C(c1ccc(OC)cc1)N(C(=O)CCC(=O)Nc1cc(C)on1)c1ccc(F)cc1 (stereo not shown) | 13.3 |

From paper PMC4336329 (PLoS ONE, 2015)
